The other results are listed elsewhere or left out. Further columns of the screen follow, without active or inactive calls.
Molecular target: GTPase KRas (Homo sapiens) (UniProt P01116)
Test: Cysteine mutants labelled by reactive fragments (mass read-out) (AID 2202238)
Parameters: protein at 5 µM with 500 µM competing thiol for 1.5 h
Settings: KRAS G12D cysteine mutants, disulfide tethering, MALDI-TOF labeling, stronger effect = higher value, fragment at 500 µM
[1] = measured here: G60C mutant labeling
[2] = measured here: G75C mutant labeling
[3] = measured here: H94C mutant labeling
[4] = measured here: I36C mutant labeling
[5] = measured here: L120C mutant labeling
[6] = measured here: M67C mutant labeling
[7] = measured here: M72C mutant labeling
[8] = measured here: N26C mutant labeling
[9] = measured here: N86C mutant labeling
[10] = measured here: P121C mutant labeling
[11] = measured here: S122C mutant labeling
[12] = measured here: S136C mutant labeling

UniProt P01116, sequence (P01116 whole entry, looked up, the tested form may be a part): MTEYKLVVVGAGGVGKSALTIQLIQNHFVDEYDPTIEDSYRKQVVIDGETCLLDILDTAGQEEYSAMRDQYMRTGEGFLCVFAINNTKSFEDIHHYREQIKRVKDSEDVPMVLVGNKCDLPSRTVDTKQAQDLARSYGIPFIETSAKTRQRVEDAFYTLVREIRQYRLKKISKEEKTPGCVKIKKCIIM

Compound	percent labeling [1]	percent labeling [2]	percent labeling [3]	percent labeling [4]	percent labeling [5]	percent labeling [6]	percent labeling [7]	percent labeling [8]	percent labeling [9]	percent labeling [10]	percent labeling [11]	percent labeling [12]
O=C(NCCS)C1CCN(S(=O)(=O)N2CCCCC2)CC1	28.2%	12.1%	29.3%	20.2%	26.2%	23.1%	18.4%	33.2%	21.7%	19.6%	20.1%	25.4%
CC(C)(C)C(=O)N1CCOC(C(=O)NCCS)C1 (stereo unspecified)	19.2%	9.4%	31.1%	20.9%	34.8%	25.8%	11.5%	31.7%	23.6%	29.1%	32.1%	45.8%
O=C(CCS)N1CCC(c2n[nH]c(=O)o2)CC1	–	8.8%	22%	29.1%	26.1%	29.8%	13.2%	–	27.9%	35.4%	36.4%	50%
O=C(NCCS)c1cc(-c2ccn[nH]2)ccc1F	57.9%	25.3%	34.8%	22.3%	33%	32.3%	62%	53.6%	32.5%	31.4%	26.5%	49.5%
O=C(CCc1sccc1Br)NCCS	60.1%	27.4%	33%	22.6%	38.3%	44.1%	50%	37.7%	25.3%	33%	24.3%	36.3%
CC(C)Cc1nnc(NC(=O)CN(C)C(=O)CCS)s1	–	14.7%	30.5%	37.2%	46.1%	32.8%	51.6%	–	33.1%	31.7%	31.1%	49%
COC(=O)C1CC2(CCS(=O)(=O)CC2)CN1C(=O)CCS (stereo unspecified)	–	5%	26.9%	25.8%	23.3%	30.3%	7.5%	–	13.4%	29.7%	27.4%	41.8%
O=C(CCS)NC1CCCOC1c1ccncc1 (stereo unspecified)	–	12.3%	25.7%	38.4%	21.5%	37.5%	11.5%	–	12.7%	29.7%	30.9%	45.3%
O=C(NCCS)c1cnc(-c2ccoc2)s1	1.4%	0%	0%	2.4%	3.3%	4.8%	0%	10.4%	0%	0%	8%	6.6%
COc1cc(Br)c(CCNC(=O)CCS)cc1OC	–	11.8%	32.4%	30.1%	23%	33.3%	33.8%	–	20.7%	23%	18.9%	45.4%
O=C(CCS)N1CCn2cc(Br)cc2C1	–	0%	10.9%	0%	6.8%	7.6%	0%	–	3.3%	7.8%	6.6%	7.3%
O=C(CCS)N1CCC(CN2CCCCC2=O)CC1	–	10.6%	31.3%	34.8%	36.9%	35.8%	17.8%	–	22.1%	33.2%	38.7%	57%
COc1cc(CNC(=O)CCS)ccc1OC(F)F	–	13.3%	42.2%	44.7%	31.2%	37.8%	40.5%	–	35.1%	14%	34.3%	52.7%
O=C(NCCS)c1cc(-c2cccc(F)c2)no1	5.6%	0%	4.8%	5.3%	8.1%	6.8%	36%	14.4%	0%	0%	7.5%	11.4%
Cc1c(C(=O)NCCS)ccc2cnc(C3CC3)n12	0%	0%	0%	0%	0%	0%	3.2%	8.5%	7.9%	5.7%	9.5%	13.4%
O=C(NCCS)c1cnccc1Oc1ccccc1	44.4%	24.8%	40%	16.2%	37.4%	25.1%	20.4%	30%	16.8%	29.1%	17.3%	67.6%
Cc1cc(F)ccc1CC1(C(=O)NCCS)CC1	42%	16.2%	22.5%	16.8%	22.4%	22.5%	37.2%	33.4%	13.7%	14.7%	14.7%	29.3%
O=C(CCS)Nc1cnn(Cc2ccccn2)c1	–	11.7%	26.9%	40.2%	30.1%	40.4%	24.9%	–	31.3%	29.8%	29.7%	55.7%
O=C(CCS)NCc1cnc2ccccc2c1	–	20.6%	31.8%	45.3%	23.1%	47.7%	41.2%	–	27.1%	30.7%	29.6%	54.3%
CN(C)C(CCC(=O)NCCS)c1ccccc1 (stereo unspecified)	45.3%	13.8%	35.5%	32.4%	32.6%	45.8%	18.6%	39.5%	25.8%	31.2%	27.6%	62.5%
O=C(CCS)NCc1cccc(C(=O)N2CCOCC2)c1	–	7.4%	30.6%	43.7%	29.1%	36.5%	11.8%	–	19.6%	30.2%	28%	47.6%
COc1nc(CNC(=O)CCS)ccc1OCc1ccccc1	–	11.6%	20.5%	20.6%	14%	39.1%	27.3%	–	14.7%	13.7%	13%	27.8%
O=C(Nc1ccc2c(c1)CCO2)C1CCCCN1C(=O)CCS (stereo unspecified)	–	10.1%	26.4%	21.2%	22.1%	23.8%	23.2%	–	11.2%	20.3%	14.6%	30.9%
CCn1cc(CC(=O)NCCS)c2ccccc21	31.7%	21.7%	24.6%	19.1%	33%	10.4%	30.9%	29.5%	14.7%	17.3%	16.5%	41.7%

Compound	percent labeling [1]	percent labeling [2]	percent labeling [3]	percent labeling [4]	percent labeling [5]	percent labeling [6]	percent labeling [7]	percent labeling [8]	percent labeling [9]	percent labeling [10]	percent labeling [11]	percent labeling [12]
O=C(Cc1ccccc1Nc1c(Cl)cccc1Cl)NCCS	60.6%	16.9%	16.7%	11.7%	27.7%	7.4%	32.7%	18.8%	7.2%	16.7%	3.6%	18.7%
Cn1ccnc1CN1CCN(C(=O)CCS)CC1	–	4.2%	17.9%	22.5%	18.9%	26.4%	5.8%	–	5.9%	18.6%	18.2%	45.5%
O=C(NCCS)c1cn([C@@H]2COC[C@H]2O)nn1	23.4%	14.6%	30.5%	25.6%	43.2%	33.5%	30.4%	44.8%	29.3%	31.3%	36.8%	46.7%
O=C(NCCS)c1cc(C2CC2)nc2ccccc12	39.4%	17.1%	22.4%	11.6%	20.7%	15.5%	31.7%	37.2%	10.7%	17.2%	10.2%	43.5%
O=C(CCS)NCc1ccc2c(c1)CC(=O)N2	–	0%	9.1%	21.2%	7.2%	10.2%	6.2%	–	2.8%	18%	11.6%	18.8%
COc1ccc(C(=O)NCCS)c(OC(F)F)c1	41.7%	26.4%	32.5%	21.8%	37%	27.7%	44.6%	40%	31.2%	43.2%	27.7%	39.9%
O=C(CCS)N1CCN(c2ncnc3ccsc23)CC1	–	22.1%	30.1%	35.2%	24.7%	45.5%	35.7%	–	17.4%	30.2%	24.6%	54.6%
O=C(CCS)Nc1ncn(C2CCCCC2)n1	–	18.4%	27.5%	35.2%	35.9%	24.6%	31.1%	–	22.3%	30.6%	33.8%	50.1%
CN1C(=O)NC2(CCN(C(=O)CCS)CC2)C1=O	–	9.5%	29%	34.8%	31.1%	36.9%	17.7%	–	19.9%	33%	36.6%	44.9%
CCN(CC)C(=O)c1cc(NC(=O)CCS)nn1C	–	12.2%	36.4%	35.2%	45.3%	29.8%	33%	–	28%	31.7%	37.3%	52.2%
O=C(CCS)Nc1cncc(-c2nccs2)c1	–	20%	29%	30%	26.2%	24.5%	50.4%	–	17.8%	23.5%	24.9%	46.9%
O=C(CCS)N1CC(Oc2ccc(Cl)cc2)C1	–	18.3%	19.9%	21.2%	19.8%	30.7%	28%	–	15.4%	25.7%	15.8%	31.4%
O=C(CC1(CCc2ccccc2)CCCC1)NCCS	41.6%	9.7%	10.3%	7.1%	21.7%	10.1%	16%	22.7%	13.5%	19.4%	9%	19.8%
O=C(CCS)NCC12CC(C1)C(C(F)(F)F)O2 (stereo unspecified)	–	10.9%	35%	36.1%	33%	34.3%	23%	–	31.3%	36.6%	44%	50.9%
COc1ccc2cc(CNC(=O)CCS)ccc2c1	–	6.1%	8.9%	12.3%	10%	18.1%	13.5%	–	4.5%	11.8%	8.7%	20.1%
O=C1CCC(c2ccc(C(=O)NCCS)cc2)N1 (stereo unspecified)	24.6%	15.6%	26.6%	22.5%	30.5%	27%	27.5%	38.9%	26.8%	26.9%	27.2%	39.2%
O=C(CCS)NC1(c2cccc(F)c2F)CCCC1	–	15.9%	36.8%	35.9%	36.6%	33.8%	53.5%	–	23.7%	29.8%	33.2%	59.8%
O=C(CCS)NCCc1ccc(-n2cnnc2)cc1	–	9.1%	30.8%	32.5%	27.1%	39.4%	23%	–	16.3%	31.2%	37.2%	46%
O=C(CCS)N1CCC2(CC1)OCCc1ccccc12	–	28.5%	36.5%	28.1%	25.1%	40%	50.6%	–	18.4%	27.1%	23.1%	46.4%
CCOC(=O)C1C2CC(CN(C(=O)CCS)C2)N1C(=O)OC(C)(C)C (stereo unspecified)	–	14.4%	29.8%	18.5%	25.9%	23.8%	16.3%	–	19.6%	23.5%	28.4%	54.1%
Cc1cc2ncc(C(=O)N(C)CC(=O)NCCS)c(C)n2n1	24.9%	9.2%	31.1%	34.9%	24.6%	24.7%	12.4%	31.6%	21.3%	30.2%	25.9%	33.4%
O=C(CCS)N1CCOCc2cc(Br)ccc21	–	18.4%	51.2%	34.5%	19.1%	36.8%	35.5%	–	29.2%	27.5%	21.6%	46.9%
O=C(CCS)N1CCc2c(ncn2-c2ccc(F)cc2)C1	–	30.7%	43.2%	45.5%	32.2%	44.2%	51%	–	31.3%	31.7%	31.9%	59.8%
O=C(NCCS)C1COc2ccccc2O1 (stereo unspecified)	–	20.5%	39.9%	25.9%	35.6%	31.5%	47.4%	–	24.1%	34.3%	30.5%	52.3%

Source: PubChem BioAssay AID2202238 (Ras Initiative Chemistry Research Team, Frederick National …, 2025)
